Reference: article PMC4336329 (PLoS ONE, 2015)
The campaign covered roughly 310,000 compounds. About 2,200 (0.71%) showed an effect of 50% or more. Effects have a minus sign here. The list shows a part of the results.

These molecules were tested against human ether-à-go-go-related gene (hERG) potassium channel (human, UniProt Q12809) (assay: primary screen, population patch clamp on CHO cells stably expressing hERG).
Sequence of human ether-à-go-go-related gene (hERG) potassium channel (Q12809 whole entry, looked up): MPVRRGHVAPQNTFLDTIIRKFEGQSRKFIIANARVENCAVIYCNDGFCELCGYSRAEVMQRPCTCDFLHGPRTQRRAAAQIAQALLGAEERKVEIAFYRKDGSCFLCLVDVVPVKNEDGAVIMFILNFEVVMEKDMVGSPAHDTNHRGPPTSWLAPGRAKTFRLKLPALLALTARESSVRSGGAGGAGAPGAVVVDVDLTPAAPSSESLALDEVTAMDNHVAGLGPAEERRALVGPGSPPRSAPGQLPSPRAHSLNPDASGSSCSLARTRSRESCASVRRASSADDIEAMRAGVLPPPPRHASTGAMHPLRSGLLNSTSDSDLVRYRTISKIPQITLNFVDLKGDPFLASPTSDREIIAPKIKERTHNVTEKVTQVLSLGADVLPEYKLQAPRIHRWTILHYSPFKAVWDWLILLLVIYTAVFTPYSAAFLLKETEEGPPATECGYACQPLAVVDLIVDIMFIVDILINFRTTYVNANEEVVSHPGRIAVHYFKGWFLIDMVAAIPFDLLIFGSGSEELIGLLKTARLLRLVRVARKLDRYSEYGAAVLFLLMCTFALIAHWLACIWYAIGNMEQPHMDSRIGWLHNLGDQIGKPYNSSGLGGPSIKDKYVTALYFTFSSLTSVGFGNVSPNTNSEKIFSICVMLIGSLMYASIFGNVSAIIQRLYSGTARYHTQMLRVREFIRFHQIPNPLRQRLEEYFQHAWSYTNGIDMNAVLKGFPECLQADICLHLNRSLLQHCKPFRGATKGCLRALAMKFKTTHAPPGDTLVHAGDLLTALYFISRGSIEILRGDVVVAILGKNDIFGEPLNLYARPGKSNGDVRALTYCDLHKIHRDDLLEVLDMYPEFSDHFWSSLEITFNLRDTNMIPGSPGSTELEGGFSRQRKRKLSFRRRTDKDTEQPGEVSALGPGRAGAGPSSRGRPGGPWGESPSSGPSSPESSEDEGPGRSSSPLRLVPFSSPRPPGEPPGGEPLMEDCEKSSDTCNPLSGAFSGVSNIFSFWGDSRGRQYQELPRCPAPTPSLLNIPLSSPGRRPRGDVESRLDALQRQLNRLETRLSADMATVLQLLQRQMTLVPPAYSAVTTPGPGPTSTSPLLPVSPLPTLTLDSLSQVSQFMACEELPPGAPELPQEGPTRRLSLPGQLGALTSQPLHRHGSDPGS

Structure (SMILES) | hERG current change (%, negative = inhibition) at 1uM [%]
Cc1cccc(C(=O)NCC(=O)NC(C)c2ccc(-n3ccnc3)cc2)c1 (centres unmarked) | -37.1
CCCC(=O)OCCNc1cc(SCc2ccco2)c2nonc2c1[N+](=O)[O-] | 4.49
COc1ccccc1NC(=O)CSc1nnc(NC(=O)C2CC2)s1 | 12.6
CCNC(=O)NC1(C(=O)Nc2ccc3c(c2)CCC3)CCCCC1 | 1.26
Cc1ccc(N(Cc2cc(=O)[nH]c3ccccc23)C(=O)CCl)c(C)c1 | 13.4
Cc1ccc(C)c(N2C(=O)CC(Cc3ccccc3)C2=O)c1.Cl (centres unmarked) | 15
Cc1ccccc1Cn1c(CN2CCc3ccccc3C2)nc2c1c(=O)n(C)c(=O)n2C | 11.2
CN(CC(=O)Nc1ccc(N2CCOCC2)cc1)CC(=O)Nc1ccccc1C#N | 5.54
CCN(CC)S(=O)(=O)c1ccc(N2CCCC2)c(NC(=O)Cc2cc(OC)c(OC)c(OC)c2)c1 | 6.75
CC(=O)c1cccc(OCC(=O)N2CCCc3ccccc32)c1 | 4.93
COc1ccc(CCNC(=O)C(=O)NCCOc2ccccc2)cc1OC | 3.13
CCN(CC)S(=O)(=O)c1ccc(Cl)c(C(=O)NC)c1 | 3.08
COc1ccc(C(=O)NCC(=O)N/N=C/C(C)=C/c2ccco2)cc1OC | 16.7
O=C(CN1CCN(Cc2ccc3c(c2)OCO3)CC1)Nc1ccc2c(c1)OCO2 | -64.3
COc1ccc(NC(=O)C(=O)NCCN2CCN(C(=O)c3cccc(Br)c3)CC2)cc1 | -5.64
Cc1ccc2c(c1)-c1[nH]c(=S)ncc1CS2 | 15.9
CC(Sc1nc2cc(Cl)ccc2s1)C(=O)Nc1cccc(S(=O)(=O)N2CCOCC2)c1 (centres unmarked) | -0.0431
Cc1ccc2nc(NC(=O)c3ccc(Br)o3)sc2c1 | 23.4
Clc1ccc(-n2nnnc2-c2cnc(-c3ccncc3)nc2-c2cccs2)cc1 | -3.83
Cc1cc(C)nc(NS(=O)(=O)c2ccc(NC(=O)CSc3nc4ccccc4[nH]3)cc2)n1 | -5.97
Cc1ccc(N(C(=O)c2ccccn2)C(C(=O)NC2CCCCC2)c2ccncc2)cc1 (centres unmarked) | 11.7
Nc1ccccc1-c1nc2ccccc2[nH]c1=O | 11.2

Structure (SMILES) | hERG current change (%, negative = inhibition) at 1uM [%]
COc1ccccc1/C=C/C(=O)NCC(=O)N/N=C/c1ccc2c(c1)OCO2 | 16.6
CC(C)N(CC(N)=O)C(=O)Cc1coc2cc3c(cc12)CCC3 | 9.14
Cc1ccn2c(NC(=O)c3cccs3)c(-c3ccccc3)nc2c1 | 8.62
O=C(COC(=O)Cc1ccc(F)cc1)NC1CCS(=O)(=O)C1 (centres unmarked) | 2.81
Cc1ccc2c(C(=O)CN3CCCC(C)C3)c(C)[nH]c2c1 (centres unmarked) | 6.35
C[N+](C)(C)C[C@H](O)CC(=O)[O-] | 3.24
O=C(Nc1cccc(O)c1)c1ccc(NC(=O)c2cccs2)cc1 | 13.8
CCC1(CC)C(=O)C2=C3C1[C@H](C(=O)OC)C=C(C(=O)OC)C[C@H]3[C@H]1C(=O)N(Cc3ccccc3)C(=O)[C@H]1[C@H]2C (some centres unmarked) | 4.54
COc1ccc2c(CC(=O)N3CCN(S(=O)(=O)c4ccc(F)cc4)CC3)coc2c1 | 7.59
O=C(Nc1nnc(S(=O)(=O)N2CCCCCC2)s1)c1ccc(Br)cc1 | 1.03
Cn1cc(CN2CCC(C(=O)Nc3cccc(-c4cccc(F)c4)c3)CC2)cn1 | -37.9
CCOC(=O)C[C@H]1c2cc(C(F)(F)F)ccc2S(=O)(=O)N1Cc1ccccc1 | 4.32
OCCC1CN(Cc2nc3c(s2)CCCC3)CCN1CCc1ccccc1 (centres unmarked) | -10.6
CCOC(=O)/C(N=Nc1ccc(C(=O)O)cc1[N+](=O)[O-])=C(\C)O | 21.6
O=C1CCN2C=Nc3cccc4ccc1c2c34 | 8.64
O=C(Nc1cccc(Cl)c1)c1cc(S(=O)(=O)N2CCCCC2)c[nH]1 | -13
CCCN1CCC(NC(=O)Cc2ccccc2C)CC1 | 20.6
COc1ccc(CNC(=O)c2cc(S(=O)(=O)N3CCOCC3)cn2C)cc1 | 10.8
CCOc1c(Cl)cc(C(=O)NCCN2CCCCC2)cc1Cl | -27.8
COc1ccc(-c2nnc(SC(C)C(=O)Nc3nccs3)n2Cc2ccccc2)cc1OC (centres unmarked) | -4.34
C/C(=N\NC(=O)c1cccs1)c1ccncc1 | 28.4
CC(C)NC(=O)C(=O)c1cn(C)c2ccccc12 | 11.6

Structure (SMILES) | hERG current change (%, negative = inhibition) at 1uM [%]
CCOc1ccc(N(CCCCO)C(=S)NC(=O)c2ccc(C)c(Br)c2)cc1 | 6.96
Cn1ccnc1SCCNC(=O)CCc1nnc(CCCCc2ccccc2)o1 | 7.31
c1ccc2cc(-c3csnn3)ccc2c1 | 18.3
CCC1CN(C(=O)N2CCC(C(=O)NCc3ccccc3C)CC2)c2ccccc2O1 (centres unmarked) | 10.3
Cc1cc(C(=O)OCC(=O)NNC(=O)c2cccs2)ccc1[N+](=O)[O-] | 17.4
CCc1c(C)nc2ncnn2c1N1CCCC(C(=O)Nc2cc(F)ccc2C)C1 (centres unmarked) | -5.51
Cc1cccc(NC(=O)Cn2cc(C(=O)C3CC3)c3ccccc32)c1 | 10.2
Cc1nc(CN2CCCC2=NC#N)n(-c2ccccc2)n1 | 11.2
O=C(CN1C(=O)NC2NC(=O)NC21)NN=C1CCCC1 (centres unmarked) | 10.2
O=C1OCCC1Sc1nnc(-c2cccnc2)n1-c1ccccc1F (centres unmarked) | 8.32
COc1cc(OC)c(OC)cc1/C=N/NC(=O)c1ccc(CSc2nc(C)cc(C)n2)cc1 | 5.83
O=C(CS(=O)(=O)c1cn(CC(=O)N2CCOCC2)c2ccccc12)NCc1ccc(F)cc1 | 16.5
COc1ccc(CCNC(=O)COC(=O)c2cnc(C)cn2)cc1 | 11.9
O=C(C1CCCCC1)N1CCC(O)(c2ccc(Cl)cc2)CC1 | 14.9
COCCNS(=O)(=O)c1cc(Br)ccc1OC | 8.75
CCOc1ccc(NCC(=O)c2ccc(C)cc2)cc1 | 42.1
Cc1cc(=O)oc2c3c(cc(OCC(=O)NCCC(=O)N[C@@H](C)C(=O)O)c12)OC(C)(C)CC3 | 8.55
Cc1ccc(-c2n[nH]c(=O)c3ccccc23)cc1S(=O)(=O)NCC1CCCO1 (centres unmarked) | 3.31
CCC1=C2CC[C@H]3C(=O)N(c4ccccc4)C(=O)[C@H]3[C@H]2[C@@]2(C)C(=NCC(=O)OC)OC(=O)N2C1=O | 18.3
CC(C)=CCc1c(O)c(CC=C(C)C)c2c(c1O)-c1cc(O)c(O)cc1CC2 | 12.2
NC(=O)c1cccn1Cc1ccccc1Cl | 7.75
COc1cccc(C(=O)c2c[nH]c(C(=O)NCc3cccnc3)c2)c1 | 4.59

Structure (SMILES) | hERG current change (%, negative = inhibition) at 1uM [%]
N#Cc1c(SCC(=O)Nc2nc3ccc(Br)cc3s2)sc2c(O)cc(=O)[nH]c12 | 8.19
Cc1ccc(S(=O)(=O)n2[nH]c(=O)cc2N)cc1 | 10.9
Nc1ncnc2c1ncn2[C@@H]1O[C@H](CO)[C@@H](O)[C@@H]1O | 4.08
N#Cc1ccccc1Cn1c(=O)n(Cc2ccc(C(=O)NCc3ccco3)cc2)c(=O)c2sccc21 | 6.68
COc1ccc(C(=O)Nc2ccc(-c3nnn(CC(=O)N4CCN(C(=O)c5ccco5)CC4)n3)cc2)cc1 | 2.14
O=C(CN1C(=O)CC(c2ccccc2)=Nc2ccccc21)NCc1ccccc1 | 13.4
COC(=O)[C@]1(Cc2ccccc2)N[C@H](c2ccc(-c3cc(C(C)=O)cs3)cc2)[C@@H]2C(=O)N(C)C(=O)[C@@H]21.O=C(O)C(F)(F)F | 2
C/C(=N\NC(=O)c1ccc(F)cc1)c1ccc(N2CCOCC2)cc1 | 1.36
O=C(/C=C/c1c(F)cccc1Cl)Nc1ccncc1 | 2.58
CC1CCN(C(=O)C(C)NCc2ccc(F)cc2)CC1.O=C(O)C(=O)O (centres unmarked) | 1.2
CC(C)C(C)NC(=O)CSc1ccc(S(=O)(=O)N2CCOCC2)cn1 (centres unmarked) | 3.48
Cc1ccc(C)c2c1cc(C)c1nnc(SCC(=O)Nc3nc4c(s3)CCCC4)n12 | -0.557
O=[N+]([O-])c1cc(F)c(N2CCCCC2)cc1Br | 7.51
Cc1cccc(NC(=O)CSc2nnc(CNC(=O)c3ccc(S(=O)(=O)N(C)C)cc3)n2-c2cccc(C)c2)c1 | 11.1
Cn1cnc(S(=O)(=O)Nc2cc(-c3ccc(Cl)cc3)nn2C)c1 | 8.73
N#Cc1ccc(Oc2ccc(S(=O)(=O)N3CCCCC3)cn2)cc1 | 4.97
CCOC(=O)c1sc(NC(=O)C(C)C)c(C#N)c1C | 16
COCc1ccc(CN2CCCC(CO)(Cc3cccc(Cl)c3)C2)o1 (centres unmarked) | -11.3
CCCCOC(=O)Nc1nc2ccc([N+](=O)[O-])cc2s1 | 18.8
O=C(Nc1ccccc1)/C(=C/c1cccc(Br)c1)NC(=O)c1ccco1 | 9.68
